68 compounds from PubChem BioAssay AID1645882 (National Center for Advancing Translational Sciences (NCATS), 2021) can be followed below.

In all, about 16,000 compounds went through this assay and about 120 (0.75%) were called active. Roughly 4% stayed inconclusive and do not appear here. The call rests on the fitted dose curve; in most records, active means well fitted inhibition curve with a large enough effect; inconclusive means small, poorly fitted or top-dose-only effect; inactive means no such curve, though single readings can be large or run the other way. This is one part of the list. Where a SMILES comes first, the peptide text is derived from it. [ ]: non-standard residue; d: D form. Nle = CCCC[C@H](N)C(=O)O

The target of this assay is Rap guanine nucleotide exchange factor 3 (Homo sapiens) (UniProt O95398). Briefly: Validation qHTS for antagonist of cAMP-regulated guanine nucleotide exchange factor 3 (EPAC1).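 Further: plate controls were DMSO for no effect and ATA control for full effect; nearly all actives have a fitted effect of over 75% in size.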 To be noted: EPAC1 Rap1B-BODIPY-GDP exchange, fluorescence; series mostly up to 150 µM; activity change, negative = inhibition: at the top concentration. The method, boiled down: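 Nucleotide exchange followed as fluorescence loss when BODIPY-GDP leaves Rap1B (480 nm excitation, 540 nm emission), read at 5 min intervals over 30 min. Reaction: 100 nM EPAC1, 250 nM RAP1B-BODIPY-GDP, 50 uM GDP; ATA and DMSO define normalization.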
UniProt O95398, sequence (O95398 whole entry, looked up): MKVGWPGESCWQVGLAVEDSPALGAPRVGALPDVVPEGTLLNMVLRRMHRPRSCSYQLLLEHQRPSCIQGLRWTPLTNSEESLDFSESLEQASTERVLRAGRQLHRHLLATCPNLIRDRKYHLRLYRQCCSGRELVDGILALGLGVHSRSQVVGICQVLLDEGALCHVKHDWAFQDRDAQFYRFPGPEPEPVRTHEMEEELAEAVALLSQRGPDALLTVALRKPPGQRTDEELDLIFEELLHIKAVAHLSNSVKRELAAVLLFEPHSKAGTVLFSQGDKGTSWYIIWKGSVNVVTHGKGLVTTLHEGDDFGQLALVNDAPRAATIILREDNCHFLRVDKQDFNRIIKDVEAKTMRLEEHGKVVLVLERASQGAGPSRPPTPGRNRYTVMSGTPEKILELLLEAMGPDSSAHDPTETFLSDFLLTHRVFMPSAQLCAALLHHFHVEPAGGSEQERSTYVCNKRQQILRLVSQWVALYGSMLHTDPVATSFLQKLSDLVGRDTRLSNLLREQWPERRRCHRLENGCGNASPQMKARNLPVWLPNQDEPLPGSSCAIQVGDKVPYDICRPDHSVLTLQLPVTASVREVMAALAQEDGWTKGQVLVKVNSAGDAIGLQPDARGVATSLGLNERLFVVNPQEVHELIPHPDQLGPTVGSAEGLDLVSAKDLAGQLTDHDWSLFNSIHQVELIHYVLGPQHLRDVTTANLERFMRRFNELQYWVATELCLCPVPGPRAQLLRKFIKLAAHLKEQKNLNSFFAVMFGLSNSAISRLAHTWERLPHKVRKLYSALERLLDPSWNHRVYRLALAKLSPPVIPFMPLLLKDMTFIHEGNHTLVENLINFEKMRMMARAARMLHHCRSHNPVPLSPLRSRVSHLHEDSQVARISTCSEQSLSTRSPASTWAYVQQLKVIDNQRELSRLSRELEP
(In general: In qHTS, concentration-response curves come from the screen itself.)
`Cc1ccc(S(=O)(=O)NC(=O)NN2CCCCCC2)cc1`: the activity change, negative = inhibition entry is “inactive”.

For the compound `COc1cc2c(CCNC(C)=O)c[nH]c2cc1Cl`, the activity change, negative = inhibition entry is “inactive”.

`CC1Cc2ccccc2C[N+]1(C)CC(=O)c1cccc([N+](=O)[O-])c1` (stereo not drawn): the “activity change, negative = inhibition” value is inactive: -23%.

Consider `N#CCCN1CCC(NC(=O)OCc2ccccc2)CCC1=O` (stereo not drawn), for which the “activity change, negative = inhibition” value was inactive: -0.114%.

As to `CO/N=C(/C(=O)NC1C(=O)N2C(C(=O)O)=C(CSc3nc(=O)c(O)nn3C)CSC12)c1csc(N)n1` (stereo not drawn), the “activity change, negative = inhibition” value was inactive: 6.35%.

As to `Cc1ncc2c(c1CNC(=O)c1ccc3c(c1)OCO3)CCN(C(=O)c1cccc(-n3cccn3)c1)C2`, the “activity change, negative = inhibition” value was inactive: 6.43%.

Take `CNC1CCC(c2ccc(Cl)c(Cl)c2)c2ccccc21` (stereo not drawn): the “activity change, negative = inhibition” value is inactive: 9.51%.

Take `CS(=O)(=O)Nc1cccc(-c2ccc3ncnc(N4CCOCC4)c3c2)c1`: the “activity change, negative = inhibition” value was inactive: 9.3%.

On to `CSc1ccc2cc(CNCc3ccccc3F)c(N3CCCC(CO)C3)nc2c1` (stereo not drawn), for which the “activity change, negative = inhibition” value is inactive: 7.44%.

In the case of `CCC1CN(CCNC(=O)c2cccnc2C)Cc2cc(OC)ccc2O1` (stereo not drawn), the “activity change, negative = inhibition” value is inactive: 7.12%.

In the case of `Cc1cnc2c(C)cccc2c1C`, the “activity change, negative = inhibition” value was inactive: 3.14%.

`COc1ccc(Oc2ncc3nc(C)c(=O)n(-c4ccccc4)c3n2)cc1`: the “activity change, negative = inhibition” value was inactive: 6.22%.

With `COCC(=O)N1CCC2(CC1)CCN(c1ncccn1)CC2`, the “activity change, negative = inhibition” value was inactive: 14.1%.

As for `COCC(=O)N1CCC2(CC1)CCN(C(=O)Nc1cccc(F)c1)CC2`, the “activity change, negative = inhibition” value was inactive: 35.6%.

`C=CCn1c(=O)c2c(nc(-c3ccc(S(=O)(=O)O)cc3)n2C)n(C)c1=O`: the activity change, negative = inhibition result was “inactive”.

As for `CCCCN1CC[C@H]2C=CC[C@@H](C(=O)NCc3ccc(OC)cc3)[C@H]2C1=O`, the “activity change, negative = inhibition” value was inactive: 0.704%.

`O=C(c1cc2ccccc2o1)N1CCN(Cc2ccccc2)CC1`: the “activity change, negative = inhibition” value was inactive: 4.24%.

As to `O=c1c(-c2cccc(Cl)c2)nc2cncnc2n1-c1ccccc1`, the “activity change, negative = inhibition” value was inactive: 3.94%.

With `CC(C)c1ccc2c(c1)CC[C@@H]1[C@@](C)(CN)CCC[C@]21C`, the “activity change, negative = inhibition” value is inactive: 10.5%.

As to `CC(C)c1c(C(=O)NCC2(N3CCCCC3)CCCC2)cnn1-c1nccc(-c2ccco2)n1`, the “activity change, negative = inhibition” value was inactive: 12.4%.

For the compound `Cc1cc2nc(N3CCC(NC(C)c4nc(-c5ccccn5)no4)CC3)nc(C)c2cc1C` (stereo not drawn), the “activity change, negative = inhibition” value was inactive: 1.9%.

Regarding `CN(Cc1ccco1)c1nc(-c2cccnc2)nc2ccccc12`, the “activity change, negative = inhibition” value was inactive: -1.3%.

In the case of `Nc1nc2c([nH]c(=O)n2C2OC(CO)C(O)C2O)c(=O)[nH]1` (stereo not drawn), the “activity change, negative = inhibition” value is inactive: 10.9%.

With `CCOC(=O)c1ccc(N)cc1`, the activity change, negative = inhibition entry was “inactive”.

On to `Cc1ccc2c(C)ccnc2c1`, for which the “activity change, negative = inhibition” value is inactive: -2.01%.

With `CCC1(C2CCN(C(=O)c3ccccc3Cl)CC2)NC(=O)N(CCc2scnc2C)C1=O` (stereo not drawn), the “activity change, negative = inhibition” value is inactive: 6.92%.

Regarding `CCNc1ncc2nc(C)c(=O)n(CCC#N)c2n1`, the “activity change, negative = inhibition” value is inactive: -3.94%.

On to `CC1c2ccccc2CN1CC1=NCCN1` (stereo not drawn), for which the “activity change, negative = inhibition” value is inactive: 4.55%.

For the compound `CCCCCCCCCCCCCCC(F)C(=O)O` (stereo not drawn), the activity change, negative = inhibition is inactive: 21% [at 15.3 µM].

Regarding `OC(CCCN1CCCCC1)(c1ccccc1)c1ccccc1`, the “activity change, negative = inhibition” value is inactive: 23.2%.

Consider `O=c1c2ccccc2oc2cc(O)c(C3COCC(CO)C(O)C(O)C3O)c(O)c12` (stereo not drawn), for which the “activity change, negative = inhibition” value was inactive: -10.1%.

Turning to `CCN(CC)CCOC(=O)C(c1ccccc1)c1ccccc1`, the “activity change, negative = inhibition” value is inactive: 20.8%.

For the compound `COC(=O)N1CCC2(CC1)CN(c1cccc(-c3ccccc3)c1)C2`, the “activity change, negative = inhibition” value is inactive: -19.2%.

Regarding `CN1CCN(c2c(F)cc3c(=O)c(C(=O)O)cn4c3c2OCN4C)CC1`, the “activity change, negative = inhibition” value was inactive: -0.374%.

For the compound `c1cncc(CNc2ncnc3ccc(-c4ccoc4)cc23)c1`, the “activity change, negative = inhibition” value is inactive: -7.04%.

For the compound `COc1cc([C@@H]2Oc3cc([C@H]4Oc5cc(O)cc(O)c5C(=O)[C@H]4O)ccc3O[C@H]2CO)ccc1O`, the “activity change, negative = inhibition” value is inactive: -5.5%.

On to `COC(=O)C1CCCCN1Cc1ccc2c(c1)CN(Cc1cc(OC)c3c(c1)OCO3)CCO2` (stereo not drawn), for which the “activity change, negative = inhibition” value is inactive: -7.6%.

Turning to `COc1ccc(C(=O)N2CCC[C@@]3(CCN(Cc4ccncc4)C3)C2)cc1`, the “activity change, negative = inhibition” value was inactive: 21.9%.

Consider `COc1ccc(-c2nc3cnc(N4CCNCC4)nc3n(C)c2=O)cc1`, for which the “activity change, negative = inhibition” value was inactive: 14.1%.

Regarding `O=C(CN1Cc2ccccc2OC(c2ccccc2)C1)N1CCCCC1c1cccnc1` (stereo not drawn), the “activity change, negative = inhibition” value was inactive: -13.1%.

Take `CCOc1ccc2nc3cc(N)ccc3c(N)c2c1`: the activity change, negative = inhibition entry is “inactive”.

On to `O=c1c(O)c(-c2ccc(O)c(O)c2)oc2ccccc12`, for which the “activity change, negative = inhibition” value was inactive: 10.1%.

With `CCN(CC)CCNc1ccc(CO)c2sc3ccccc3c(=O)c12`, the “activity change, negative = inhibition” value was inactive: 11.6%.

Consider `CC(=O)C1CCC2C3CC(C)C4=CC(=O)CC[C@@]4(C)C3C(O)C[C@@]12C` (stereo partly drawn), for which the “activity change, negative = inhibition” value is inactive: 22.4%.

On to `CC(=O)OC[C@H]1O[C@@](COC(C)=O)(O[C@H]2O[C@H](COC(C)=O)[C@@H](OC(C)=O)[C@H](OC(C)=O)[C@H]2OC(C)=O)[C@@H](OC(C)=O)[C@@H]1OC(C)=O`, for which the “activity change, negative = inhibition” value is inactive: 6.54%.

For `O=c1c(CCc2ccccc2)nc2cnc(Oc3ccccc3)nc2n1C[C@H]1CCCO1`, the “activity change, negative = inhibition” value was inactive: -13.7%.

As to `CC(=O)N1CCC2(CC1)CN(c1ccncc1)C2`, the “activity change, negative = inhibition” value is inactive: 3.2%.

With `Cc1cnc(SCc2ccccn2)nc1C1CCCN(C(=O)c2cccc(-c3cccc(F)c3)c2)C1` (stereo not drawn), the “activity change, negative = inhibition” value is inactive: -4.88%.

Take `CN(Cc1cnc2nc(N)nc(N)c2n1)c1ccc(C(=O)N[C@@H](CCC(=O)O)C(=O)O)cc1`: the activity change, negative = inhibition entry is “inactive”.

Turning to `O=C(COc1ccc(Cl)cc1)N1CCN(Cc2ccc3c(c2)OCO3)CC1`, the “activity change, negative = inhibition” value is inactive: 7.99%.

In the case of `N[C@@H](Cc1ccc(O)cc1)C(=O)O`, the “activity change, negative = inhibition” value is inactive: 1.86%.

For `CNC(C)CCC=C(C)C` (stereo not drawn), the “activity change, negative = inhibition” value was inactive: 12.2%.

For the compound `COc1cc(OC)c2c(=O)c(-c3ccc4c(c3)OCO4)coc2c1`, the “activity change, negative = inhibition” value is inactive: 25.3%.

Take `Cc1oc(-c2ccccc2NC(=O)c2ccccn2)nc1CNC(=O)c1ccc(Oc2ccccc2)o1`: the “activity change, negative = inhibition” value was inactive: -8.67%.

For the compound `O=c1[nH]cnc2c1ncn2C1OC(CO)C(O)C1O` (stereo not drawn), the activity change, negative = inhibition result was “inactive”.

On to `CCCC[C@@H](C=O)NC(=O)[C@H](CC(C)C)NC(=O)[C@H](CC(C)C)NC(C)=O` (Ac-Leu-Leu-[Nle]-aldehyde), for which the “activity change, negative = inhibition” value was inactive: 34.8% [at 201 µM].

For `Cc1oc(-c2cccc(NC(=O)c3ccccc3)c2)nc1CNC(=O)c1cnc2ccccn2c1=O`, the “activity change, negative = inhibition” value is inactive: 9.43%.

As to `CCN1CCc2nc(N)oc2CC1`, the activity change, negative = inhibition entry was “inactive”.

For `O=C(c1cccc(F)c1)N1CCC2(CCN(Cc3ccccc3)CC2)CC1`, the “activity change, negative = inhibition” value is inactive: 8.23%.

For `CCCCCCCCCCCCCC[N+](C)(C)C`, the “activity change, negative = inhibition” value is inactive: 19.7%.

As to `C[N+](C)(C)CCOC(=O)CCC(=O)OCC[N+](C)(C)C`, the activity change, negative = inhibition entry is “inactive”.

For `C=CC1=C(C(=O)O)N2C(=O)[C@@H](NC(=O)/C(=N\O)c3csc(N)n3)[C@H]2SC1` (stereo in doubt), the activity change, negative = inhibition entry was “inactive”.

On to `Cc1ccsc1/C=C/C1=NCCCN1C`, for which the activity change, negative = inhibition entry is “inactive”.

`CCCCCCCCCCCCCCCCOP(=O)([O-])OCC[N+](C)(C)C`: the “activity change, negative = inhibition” value is inactive: 10.3%.

Turning to `Cc1cc(NS(=O)(=O)c2ccc(N)cc2)nc(C)n1`, the “activity change, negative = inhibition” value is inactive: 9.33%.

As to `CN1CCN(c2ncc3nc(-c4ccc(Cl)cc4)c(=O)n(Cc4cccs4)c3n2)CC1`, the “activity change, negative = inhibition” value is inactive: 13.6%.

`CC(Cc1ccc(O)c(O)c1)(NN)C(=O)O` (stereo not drawn): the “activity change, negative = inhibition” value was inactive: -5.31%.

For the compound `O=c1cnc2cnc(Nc3ccccc3)nc2n1Cc1cccs1`, the “activity change, negative = inhibition” value was inactive: 7.35%.
